# Test results published in the supplement of paper PMC8728848.
# This is one part of the list.
# B1: CC1G-11630 (Coprinopsis cinerea), A8P462 (protein)
# chain: MTTEAKIKLKAVVYWELVFDYDNSSNTGEITQSYTVKISQTSTRSTFASEVSTTTIDTLTKNNQEVDVGASYGAISANVSASWEHSEEVNNMLEKTTQTSTEDTYTVETEETRSYTIGPGGMLSLFQKHFSGPGMHVAFDVFTTDLELAKERTEIDIDVDVEAIRFVREIRVVYTDIMSEAPGDHVREINGKNPDINYGFNGKFVWLVPEQTRKTAQALTNVEFVSQAESDDRYWDLAAGAGGSNRYLIPVYDTNNKDKIYELALWRSDSYITHDKVKAAGWSGTTGDINSGRGGTYLNLVWKTRHAY
# Experiments:
# Experiment in all cases: glycan array binding signal (z-score within array); higher = stronger binding
# Settings in all cases: glycan notation: IUPAC condensed, linker removed
# [1] = target: Neu5Ac(a2-3)Gal(b1-4)GlcNAc(b1-3)Gal(b1-4)GlcNAc(b1-2)Man(a1-3)[Neu5Ac(a2-3)Gal(b1-4)GlcNAc(b1-3)Gal(b1-4)GlcNAc(b1-2)Man(a1-6)]Man(b1-4)GlcNAc(b1-4)GlcNAc
# Summary of the method: (§1)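 Glycan array data were curated from 3228 arrays in the Consortium for Functional Glycomics database and kept only where the protein sequence was available. Glycan names were converted to IUPAC-condensed notation, and columns mapping to the same glycan were averaged. The binding signal is a within-array Z-score, averaged across arrays of the same protein sequence at different concentrations or buffers and across linkers. Negative Z-scores can be read as non-binding.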
# [2] = target: Neu5Ac(a2-3)Gal(b1-4)GlcNAc(b1-3)Gal(b1-4)GlcNAc(b1-3)Gal(b1-4)GlcNAc
# Summary of the method: as §1
# [3] = target: Neu5Ac(a2-3)Gal(b1-4)GlcNAc(b1-3)Gal(b1-4)GlcNAc(b1-3)Gal(b1-4)GlcNAc(b1-2)Man(a1-3)[Neu5Ac(a2-3)Gal(b1-4)GlcNAc(b1-3)Gal(b1-4)GlcNAc(b1-3)Gal(b1-4)GlcNAc(b1-2)Man(a1-6)]GalNAc
# Summary of the method: as §1
# [4] = target: Neu5Ac(a2-3)Gal(b1-4)GlcNAc(b1-3)Gal(b1-4)GlcNAc(b1-3)GalNAc
# Summary of the method: as §1
# [5] = target: Neu5Ac(a2-3)Gal(b1-4)GlcNAc(b1-3)Gal(b1-4)GlcNAc(b1-3)[Neu5Ac(a2-3)Gal(b1-4)GlcNAc(b1-3)Gal(b1-4)GlcNAc(b1-6)]GalNAc
# Summary of the method: as §1
# [6] = target: Neu5Ac(a2-3)Gal(b1-4)GlcNAc(b1-3)Gal(b1-4)GlcNAc(b1-6)[Gal(b1-3)]GalNAc
# Summary of the method: as §1
# [7] = target: Neu5Ac(a2-3)Gal(b1-4)GlcNAc(b1-3)Gal(b1-4)[Fuc(a1-3)]GlcNAc
# Summary of the method: as §1
# [8] = target: Neu5Ac(a2-3)Gal(b1-4)GlcNAc(b1-3)GalNAc
# Summary of the method: as §1
# [9] = target: Neu5Ac(a2-3)Gal(b1-4)GlcNAc(b1-3)[Neu5Ac(a2-3)Gal(b1-4)GlcNAc(b1-6)]GalNAc
# Summary of the method: as §1
# [10] = target: Neu5Ac(a2-3)Gal(b1-4)GlcNAc(b1-6)GalNAc
# Summary of the method: as §1
# [11] = target: Neu5Ac(a2-3)Gal(b1-4)GlcNAc(b1-6)[Gal(b1-3)]GalNAc
# Summary of the method: as §1
# [12] = target: Neu5Ac(a2-3)Gal(b1-4)GlcNAc(b1-6)[Neu5Ac(a2-3)Gal(b1-3)]GalNAc
# Summary of the method: as §1
# [13] = target: Neu5Ac(a2-3)Gal(b1-4)GlcNAc6S
# Summary of the method: as §1
# [14] = target: Neu5Ac(a2-3)Gal(b1-4)[Fuc(a1-3)]GlcNAc
# Summary of the method: as §1
# [15] = target: Neu5Ac(a2-3)Gal(b1-4)[Fuc(a1-3)]GlcNAc(b1-2)Man
# Summary of the method: as §1
# [16] = target: Neu5Ac(a2-3)Gal(b1-4)[Fuc(a1-3)]GlcNAc(b1-3)Gal
# Summary of the method: as §1
# [17] = target: Neu5Ac(a2-3)Gal(b1-4)[Fuc(a1-3)]GlcNAc(b1-3)Gal(b1-4)GlcNAc
# Summary of the method: as §1
# [18] = target: Neu5Ac(a2-3)Gal(b1-4)[Fuc(a1-3)]GlcNAc(b1-3)Gal(b1-4)[Fuc(a1-3)]GlcNAc(b1-3)Gal(b1-4)[Fuc(a1-3)]GlcNAc
# Summary of the method: as §1
# [19] = target: Neu5Ac(a2-3)Gal(b1-4)[Fuc(a1-3)]GlcNAc(b1-3)GalNAc
# Summary of the method: as §1
# [20] = target: Neu5Ac(a2-3)Gal(b1-4)[Fuc(a1-3)]GlcNAc(b1-6)[Gal(b1-3)]GalNAc
# Summary of the method: as §1
# [21] = target: Neu5Ac(a2-3)Gal(b1-4)[Fuc(a1-3)]GlcNAc(b1-6)[Neu5Ac(a2-3)Gal(b1-3)]GalNAc
# Summary of the method: as §1
# [22] = target: Neu5Ac(a2-3)Gal(b1-4)[Fuc(a1-3)]GlcNAc6S
# Summary of the method: as §1
# [23] = target: Neu5Ac(a2-3)Gal6S(b1-4)GlcNAc
# Summary of the method: as §1
# [24] = target: Neu5Ac(a2-3)Gal6S(b1-4)[Fuc(a1-3)]GlcNAc
# Summary of the method: as §1
# Neu5Ac(a2-3)GalNAc = target: Neu5Ac(a2-3)GalNAc
# Summary of the method: as §1
# [25] = target: Neu5Ac(a2-3)GalNAc(b1-4)GlcNAc
# Summary of the method: as §1
# [26] = target: Neu5Ac(a2-3)[GalNAc(b1-4)]Gal(b1-4)Glc
# Summary of the method: as §1
# [27] = target: Neu5Ac(a2-3)[GalNAc(b1-4)]Gal(b1-4)GlcNAc
# Summary of the method: as §1
# [28] = target: Neu5Ac(a2-3)[GalNAc(b1-4)]Gal(b1-4)GlcNAc(b1-3)GalNAc
# Summary of the method: as §1
# [29] = target: Neu5Ac(a2-3)[Neu5Ac(a2-6)]GalNAc
# Summary of the method: as §1
# Neu5Ac(a2-6)Gal = target: Neu5Ac(a2-6)Gal
# Summary of the method: as §1
# [30] = target: Neu5Ac(a2-6)Gal(b1-3)GlcNAc(b1-3)[Gal(b1-4)GlcNAc(b1-6)]Gal(b1-4)Glc
# Summary of the method: as §1
# Neu5Ac(a2-6)Gal(b1-4)Glc = target: Neu5Ac(a2-6)Gal(b1-4)Glc
# Summary of the method: as §1
# [31] = target: Neu5Ac(a2-6)Gal(b1-4)GlcNAc
# Summary of the method: as §1
# [32] = target: Neu5Ac(a2-6)Gal(b1-4)GlcNAc(b1-2)Man
# Summary of the method: as §1
# [33] = target: Neu5Ac(a2-6)Gal(b1-4)GlcNAc(b1-2)Man(a1-3)Man(b1-4)GlcNAc(b1-4)GlcNAc
# Summary of the method: as §1
# [34] = target: Neu5Ac(a2-6)Gal(b1-4)GlcNAc(b1-2)Man(a1-3)[Gal(b1-4)GlcNAc(b1-2)Man(a1-6)]Man(b1-4)GlcNAc(b1-4)GlcNAc
# Summary of the method: as §1
# [35] = target: Neu5Ac(a2-6)Gal(b1-4)GlcNAc(b1-2)Man(a1-3)[GlcNAc(b1-2)Man(a1-6)]Man(b1-4)GlcNAc(b1-4)GlcNAc
# Summary of the method: as §1
binder,measurement,setting,value
B1,glycan array binding signal (z-score),[1],-0.324
same,glycan array binding signal (z-score),[2],-0.652
same,glycan array binding signal (z-score),[3],0.491
same,glycan array binding signal (z-score),[4],-0.506
same,glycan array binding signal (z-score),[5],-0.505
same,glycan array binding signal (z-score),[6],-0.21
same,glycan array binding signal (z-score),[7],0.194
same,glycan array binding signal (z-score),[8],-0.198
same,glycan array binding signal (z-score),[9],-0.172
same,glycan array binding signal (z-score),[10],0.067
same,glycan array binding signal (z-score),[11],-0.32
same,glycan array binding signal (z-score),[12],-0.48
same,glycan array binding signal (z-score),[13],0.608
same,glycan array binding signal (z-score),[14],-0.567
same,glycan array binding signal (z-score),[15],-0.525
same,glycan array binding signal (z-score),[16],-0.756
same,glycan array binding signal (z-score),[17],-0.297
same,glycan array binding signal (z-score),[18],-0.12
same,glycan array binding signal (z-score),[19],0.016
same,glycan array binding signal (z-score),[20],-0.426
same,glycan array binding signal (z-score),[21],0.186
same,glycan array binding signal (z-score),[22],0.397
same,glycan array binding signal (z-score),[23],0.182
same,glycan array binding signal (z-score),[24],-0.534
same,glycan array binding signal (z-score),Neu5Ac(a2-3)GalNAc,-0.176
same,glycan array binding signal (z-score),[25],-0.576
same,glycan array binding signal (z-score),[26],0.095
same,glycan array binding signal (z-score),[27],-0.277
same,glycan array binding signal (z-score),[28],0.016
same,glycan array binding signal (z-score),[29],0.098
same,glycan array binding signal (z-score),Neu5Ac(a2-6)Gal,-0.074
same,glycan array binding signal (z-score),[30],-0.542
same,glycan array binding signal (z-score),Neu5Ac(a2-6)Gal(b1-4)Glc,0.155
same,glycan array binding signal (z-score),[31],-0.215
same,glycan array binding signal (z-score),[32],-0.302
same,glycan array binding signal (z-score),[33],-0.49
same,glycan array binding signal (z-score),[34],-0.647
same,glycan array binding signal (z-score),[35],-0.524
